4 molecules from patent publication US10155934B2, “Cytochrome P450 polypeptide with increased enzyme activity” (SANOFI, priority 2014, dated 2018) can be followed below.

In this test the target is T1, CYP11A1 SA1 mutant (Bos taurus, UniProt P00189, N328D/R264T).
T1 sequence (P00189 40-520 R264T/N328D): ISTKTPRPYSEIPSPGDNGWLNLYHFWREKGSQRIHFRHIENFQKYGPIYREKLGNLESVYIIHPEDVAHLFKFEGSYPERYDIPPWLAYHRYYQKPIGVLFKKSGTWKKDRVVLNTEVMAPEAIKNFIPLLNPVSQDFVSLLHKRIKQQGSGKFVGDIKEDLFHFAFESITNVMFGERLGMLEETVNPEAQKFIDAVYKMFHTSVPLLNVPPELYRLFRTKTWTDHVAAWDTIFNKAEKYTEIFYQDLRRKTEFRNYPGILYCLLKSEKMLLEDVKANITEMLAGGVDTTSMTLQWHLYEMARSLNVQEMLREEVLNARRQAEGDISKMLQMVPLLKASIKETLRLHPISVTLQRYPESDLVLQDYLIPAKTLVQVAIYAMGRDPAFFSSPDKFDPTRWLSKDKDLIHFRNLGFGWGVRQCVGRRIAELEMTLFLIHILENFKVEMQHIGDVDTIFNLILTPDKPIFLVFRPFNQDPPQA
Conditions: after 48 hours, SA1 expressed in Bacillus megaterium (FIG. 2). As to the method:
The in vivo conversion of 300 μM cholesterol into pregnelonone was evaluated by HPLC after 24 h. Bacillus megaterium was cultivated in TB-medium containing 10 μg/ml tetracycline at 37° C. with 180 rpm shaking. Protein expression was induced by adding 0.25 g of xylose dissolved in 1 mL water, followed by the subsequent addition of the substrate, dissolved in 2-hydroxypropyl-β-cyclodextrin.
Finally the improved system was used to test the SA1 polypeptide conversion capacity with various substrates of biotechnological interest: campesterol, desmosterol, ergosta-5,24(28)-dien-3β-ol and a mixture of various 20, 22-OH oxysterols.
Pregnenolone formation was quantified for every substrate (FIG. 2). […] Conversion of the more hydrophobic sterols campesterol, desmosterol and ergostadienol only occurred at a rate of approximately 19% after 48 hours, compared to cholesterol.

Molecules are shown by their SMILES.

As to `CC(C)[C@H](C)CC[C@@H](C)[C@H]1CC[C@H]2[C@@H]3CC=C4C[C@@H](O)CC[C@]4(C)[C@H]3CC[C@]12C` [campesterol], the “conversion rate compared to cholesterol” value is given as “approximately 19%”.

With `CC(C)CCC[C@@H](C)[C@H]1CC[C@H]2[C@@H]3CC=C4C[C@@H](O)CC[C@]4(C)[C@H]3CC[C@]12C` [cholesterol], the pregnenolone formation is ~35 mg/L.

On to `CC(C)=CCC[C@@H](C)[C@H]1CC[C@H]2[C@@H]3CC=C4C[C@@H](O)CC[C@]4(C)[C@H]3CC[C@]12C` [desmosterol], for which the “conversion rate compared to cholesterol” value is “approximately 19%”.

`C=C(CC[C@@H](C)[C@H]1CC[C@H]2[C@@H]3CC=C4C[C@@H](O)CC[C@]4(C)[C@H]3CC[C@]12C)C(C)C` [ergostadienol, ergosta-5,24(28)-dien-3β-ol]: the “conversion rate compared to cholesterol” value is “approximately 19%”.
